Reference: the supplement of paper PMC12217912
Some of the results follow. The full chains were built here from the parent and the listed change. Inactive controls read about 0.05.

B1: TEV protease; numbered along this chain (parent)
chain: MGESLFKGPRDYNPISSSICHLTNESDGHTTSLYGIGFGPFIITNKHLFRRNNGTLVVQSLHGVFKVKDTTTLQQHLVDGRDMIIIRMPKDFPPFPQKLKFREPQREERICLVTTNFQTKSMSSMVSDTSCTFPSGDGIFWKHWIQTKDGQCGSPLVSTRDGFIVGIHSASNFTNTNNYFTSVPKNFMELLTNQEAQQWVSGWRLNADSVLWGGHKVFMVKPEEPFQPVKEATQL

Variants of: B1
Assay: raw area under fraction-flipped curve 0-4 h after induction (AUC4h, not background-subtracted), DNA-recorder readout of cleavage of the substrate (dimensionless); higher = more cleavage of the substrate by the protease variant
Conditions: temperature: 34 °C; time window: 0-4 h after rhamnose induction
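Note: Bxb1 expression induced with 0.2% (w/v) L-rhamnose at OD600 near 0.5, cultures sampled hourly, flipped fraction per protease–substrate barcode pair counted by paired-end Illumina sequencing.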

Row | Variant | area with substrate ECLYFQS | area with substrate EELYFQS | area with substrate EGLYFQS | area with substrate EHLYFQS | area with substrate EILYFQS | area with substrate EKLYFQS | area with substrate ELLYFQS | area with substrate EMLYFQS | area with substrate EQLYFQS | area with substrate ERLYFQS | area with substrate ESLYFQS | area with substrate EYLYFQS | area with substrate EDLYFQS | area with substrate EPLYFQS | area with substrate EVLYFQS | area with substrate EWLYFQS | area with substrate EFLYFQS | area with substrate ETLYFQS
1 | MGESLFKGPRDYNPISSSICHLTNESDGHTTSLYGIGFGPFIITNKHLFRRNNGTLVVQSLHGVFKVKDTTTLQQHLVDGRDMIIIRMPKDFPPFPQKLKFREPQREERICLVTTNFQTKSMSSMVSDTSCTFPSGDGIFWKHWIQTKDGQCGSPSVSTRDGFIVGIHSASNFTNTNNYFTSVPKNFMELLTNQEAQQWVSGWRLNADSVLWGGHKVFMVKPEEPFQPVKEATQL [L156S] | 0.0421 | 0.0784 | 0.0675 | 0.0761 | 0.063 | 0.0565 | 0.0691 | 0.0708 | 0.0798 | 0.0775 | 0.0724 | 0.0836 | – | – | – | – | – | –
2 | MGESLFKGPRDYNPISSSICHLTNESDGHTTSLYGIGFGPFIITNKHLFRRNNGTLVVQSLHGVFKVKDTTTLQQHLVDGRDMIIIRMPKDFPPFPQKLKFREPQREERICLVTTNFQTKSMSSMVSDTSCTFPSGDGIFWKHWIQTKDGQCGSPGVSTRDGFIVGIHSASNFTNTNNYFTSVPKNFMELLTNQEAQQWVSGWRLNADSVLWGGHKVFMVKPEEPFQPVKEATQL [L156G] | 0.053 | 0.0559 | – | 0.0795 | – | 0.0577 | – | 0.0424 | 0.0434 | 0.0599 | 0.059 | 0.0603 | 0.0542 | 0.0527 | – | – | – | –
3 | MGESLFKGPRDYNPISSSICHLTNESDGHTTSLYGIGFGPFIITNKHLFRRNNGTLVVQSLHGVFKVKDTTTLQQHLVDGRDMIIIRMPKDFPPFPQKLKFREPQREERICLVTTNFQTKSMSSMVSDTSCTFPSGDGIFWKHWIQTKDGQCGSPLVSTRDAFIVGIHSASNFTNTNNYFTSVPKNFMELLTNQEAQQWVSGWRLNADSVLWGGHKVFMVKPEEPFQPVKEATQL [G162A] | 0.1 | 0.125 | 0.0829 | – | – | – | – | – | 0.108 | 0.114 | 0.101 | – | – | – | 0.104 | 0.0805 | – | –
4 | MGESLFKGPRDYNPISSSICHLTNESDGHTTSLYGIGFGPFIITNKHLFRRNNGTLVVQSLHGVFKVKDTTTLQQHLVDGRDMIIIRMPKDFPPFPQKLKFREPQREERICLVTTNFQTKSMSSMVSDTSCTFPSGDGIFWKHWIQTKDGQCGSPLVSTRDGFIVGYHSASNFTNTNNYFTSVPKNFMELLTNQEAQQWVSGWRLNADSVLWGGHKVFMVKPEEPFQPVKEATQL [I167Y] | 0.0732 | – | – | – | 0.0477 | 0.0755 | 0.0514 | – | – | 0.0746 | – | 0.0864 | 0.0911 | – | – | 0.0666 | 0.0544 | –
5 | MGESLFKGPRDYNPISSSICHLTNESDGHTTSLYGIGFGPFIITNKHLFRRNNGTLVVQSLHGVFKVKDTTTLQQHLVDGRDMIIIRMPKDFPPFPQKLKFREPQREERICLVTTNFQTKSMSSMVSDTSCTFPSGDGIFWKHWIQTKDGQCGSPLVSTRDGFIVGSHSASNFTNTNNYFTSVPKNFMELLTNQEAQQWVSGWRLNADSVLWGGHKVFMVKPEEPFQPVKEATQL [I167S] | 0.0651 | 0.0672 | 0.0735 | 0.0672 | 0.0665 | 0.0511 | – | 0.0616 | 0.0741 | 0.0728 | 0.0739 | 0.114 | – | 0.0648 | 0.0711 | 0.0648 | 0.0768 | 0.0669
6 | MGESLFKGPRDYNPISSSICHLTNESDGHTTSLYGIGFGPFIITNKHLFRRNNGTLVVQSLHGVFKVKDTTTLQQHLVDGRDMIIIRMPKDFPPFPQKLKFREPQREERICLVTTNFQTKSMSSMVSDTSCTFPSGDGIFWKHWIQTKDGQCGSPLVSTRSGFIVGIHSASNFTNTNNYFTSVPKNFMELLTNQEAQQWVSGWRLNADSVLWGGHKVFMVKPEEPFQPVKEATQL [D161S] | 0.0848 | 0.104 | – | 0.0832 | 0.0768 | 0.062 | 0.0795 | 0.0899 | 0.0844 | – | – | – | – | 0.0489 | 0.0853 | 0.0801 | – | 0.0816
7 | MGESLFKGPRDYNPISSSICHLTNESDGHTTSLYGIGFGPFIITNKHLFRRNNGTLVVQSLHGVFKVKDTTTLQQHLVDGRDMIIIRMPKDFPPFPQKLKFREPQREERICLVTTNFQTKSMSSMVSDTSCTFPSGDGIFWKHWIQTKDGQCGSPLVSTRDGFIVGIHSAVNFTNTNNYFTSVPKNFMELLTNQEAQQWVSGWRLNADSVLWGGHKVFMVKPEEPFQPVKEATQL [S171V] | 0.0788 | – | 0.0489 | – | – | 0.066 | 0.0872 | – | – | 0.0549 | 0.0621 | 0.0774 | – | 0.0773 | 0.0737 | – | – | 0.0606
8 | MGESLFKGPRDYNPISSSICHLTNESDGHTTSLYGIGFGPFIITNKHLFRRNNGTLVVQSLHGVFKVKDTTTLQQHLVDGRDMIIIRMPKDFPPFPQKLKFREPQREERICLVTTNFQTKSMSSMVSDTSCTFPSGDGIFWKHWIQTKDGQCGSPLVATRDGFIVGIHSASNFTNTNNYFTSVPKNFMELLTNQEAQQWVSGWRLNADSVLWGGHKVFMVKPEEPFQPVKEATQL [S158A] | 0.108 | – | 0.124 | 0.119 | 0.0882 | – | – | 0.106 | 0.0881 | 0.0772 | 0.11 | – | 0.18 | – | 0.0844 | 0.0527 | 0.107 | –
9 | MGESLFKGPRDYNPISSSICHLTNESDGHTTSLYGIGFGPFIITNKHLFRRNNGTLVVQSLHGVFKVKDTTTLQQHLVDGRDMIIIRMPKDFPPFPQKLKFREPQREERICLVTTNFQTKSMSSMVSDTSCTFPSGDGIFWKHWIQTKDGQCGSPLVDTRDGFIVGIHSASNFTNTNNYFTSVPKNFMELLTNQEAQQWVSGWRLNADSVLWGGHKVFMVKPEEPFQPVKEATQL [S158D] | 0.0785 | 0.0924 | 0.0727 | 0.0843 | – | – | – | 0.0928 | 0.112 | 0.0836 | 0.0748 | – | – | – | 0.0794 | – | 0.0839 | –
